Laboratory results from publication PMC4336329 (PLoS ONE, 2015).
Among all 310,000 compounds or so, about 2,200 (0.71%) showed an effect of 50% or more. Effects have a minus sign here. The list shows a part of the results.

What follows are molecules tested against human ether-à-go-go-related gene (hERG) potassium channel (human, UniProt Q12809) (assay: primary screen, population patch clamp on CHO cells stably expressing hERG).
Chain of human ether-à-go-go-related gene (hERG) potassium channel (Q12809 whole entry, looked up): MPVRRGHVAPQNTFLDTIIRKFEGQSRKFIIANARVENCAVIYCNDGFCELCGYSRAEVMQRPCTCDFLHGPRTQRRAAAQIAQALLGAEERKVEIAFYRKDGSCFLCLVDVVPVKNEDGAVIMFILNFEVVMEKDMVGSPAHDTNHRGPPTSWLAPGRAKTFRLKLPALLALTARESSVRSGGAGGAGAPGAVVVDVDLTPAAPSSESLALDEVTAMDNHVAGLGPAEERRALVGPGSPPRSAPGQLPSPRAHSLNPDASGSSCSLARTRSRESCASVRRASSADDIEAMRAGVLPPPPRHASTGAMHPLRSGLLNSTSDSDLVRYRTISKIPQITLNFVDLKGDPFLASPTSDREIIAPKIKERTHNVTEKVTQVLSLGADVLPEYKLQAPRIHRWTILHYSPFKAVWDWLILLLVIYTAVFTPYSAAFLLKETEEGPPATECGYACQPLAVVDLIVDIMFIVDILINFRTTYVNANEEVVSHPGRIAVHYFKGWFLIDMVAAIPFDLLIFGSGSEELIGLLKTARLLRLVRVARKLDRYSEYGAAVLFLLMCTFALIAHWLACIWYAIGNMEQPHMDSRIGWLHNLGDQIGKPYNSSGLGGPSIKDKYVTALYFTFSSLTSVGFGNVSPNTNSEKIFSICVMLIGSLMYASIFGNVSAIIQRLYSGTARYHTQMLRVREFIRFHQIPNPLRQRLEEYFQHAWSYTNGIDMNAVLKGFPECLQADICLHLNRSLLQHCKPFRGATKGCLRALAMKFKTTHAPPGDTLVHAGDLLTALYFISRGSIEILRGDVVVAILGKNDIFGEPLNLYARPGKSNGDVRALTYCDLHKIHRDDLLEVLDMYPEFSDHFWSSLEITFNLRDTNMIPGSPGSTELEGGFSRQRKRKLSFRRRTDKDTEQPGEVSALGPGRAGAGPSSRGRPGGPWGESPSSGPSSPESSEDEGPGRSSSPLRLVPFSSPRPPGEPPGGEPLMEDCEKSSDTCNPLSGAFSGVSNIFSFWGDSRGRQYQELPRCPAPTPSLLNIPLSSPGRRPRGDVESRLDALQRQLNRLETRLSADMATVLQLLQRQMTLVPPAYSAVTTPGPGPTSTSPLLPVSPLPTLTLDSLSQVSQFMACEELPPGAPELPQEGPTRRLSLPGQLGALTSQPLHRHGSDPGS

Row | SMILES | hERG current change (%, negative = inhibition) at 1uM
1 | O=C(Cn1c(=O)cnc2ccccc21)Nc1cccc(S(=O)(=O)N2CCOCC2)c1 | 1.82%
2 | Fc1ccc(NCc2nnc(SCc3ccccc3)o2)cc1 | 4.21%
3 | CC(C)CC(=O)Nc1ccc(Oc2ccc3c(c2)C(=O)NC3=O)cc1 | 11.2%
4 | Cc1ccc(S(=O)(=O)NCCOc2nc(N3CCOCC3)nc(N3CCOCC3)n2)cc1 | -4.74%
5 | O=C(Nc1cc(S(=O)(=O)N2CCCCC2)ccc1Cl)c1ccccc1NS(=O)(=O)c1ccc(F)cc1 | 7.68%
6 | O=C(Nc1ccc(N2CCOCC2)c(Cl)c1)c1ccc2c(c1)OCCO2 | 6.24%
7 | COc1ccccc1NC(=O)CN1CCSc2ccccc21 | 10.9%
8 | CN(C(=O)c1ccc2nc(N)sc2c1)c1ccccc1 | 15.6%
9 | Cc1cc(C(=O)NC2CC2)c2ccccc2n1 | 11.2%
10 | O=c1[nH]c2ccccc2nc1C(Nc1ccccc1)c1ccccc1 (stereo not shown) | 5.48%
11 | CCN(CC(=O)Nc1c(F)cccc1F)C(=O)CSCC(=O)Nc1ccc(OC)cc1 | 12.2%
12 | COc1ccccc1CNC(=O)COc1ccc(S(=O)(=O)N2CCOCC2)cc1 | -7.08%
13 | O=C(CCNS(=O)(=O)c1ccc(Br)s1)NCc1ccccc1Cl | 9.37%
14 | O=C(O)CCN1C(=O)c2ccccc2Sc2ncccc21 | 12.5%
15 | CCOC(=O)c1c(NC(=O)Cn2c(C)nc3ccccc32)sc2c1CCC2 | 6.06%
16 | Cc1ccccc1C(=O)Nc1cc(S(=O)(=O)N2CCOCC2)ccc1N1CCN(C)CC1 | 3.43%
17 | CC(=O)Nc1ccc(S(=O)(=O)N2CCN(S(=O)(=O)N3CCCCCC3)CC2)cc1 | 9.71%
18 | O=C(Cc1csc(NC(=O)Nc2cccc(Cl)c2)n1)NC1CCCC1 | 18.3%
19 | Cn1c(NC(=O)c2ccccc2)cc(=O)n(C)c1=O | 8.46%
20 | CCOC(=O)c1nc(C)c(C(C)=O)s1 | 10.4%
21 | Cc1ccc(SCCC(=O)NCC2CCCO2)cc1 (stereo not shown) | 21.2%
22 | Cc1c(C(=O)O)oc2ccc(S(=O)(=O)NCc3ccc4c(c3)OCO4)cc12 | 9.1%

Row | SMILES | hERG current change (%, negative = inhibition) at 1uM
23 | Cc1ccc(NS(=O)(=O)c2ccc(N3C(=O)CCC3=O)cc2)cc1 | -1.09%
24 | COc1ccc(C(=O)N/N=C/c2cccnc2)cc1 | 12.3%
25 | Cc1cc(=O)n2nc(N3CCCC(C(=O)Nc4ccc(C)c(C)c4)C3)sc2n1 (stereo not shown) | -16.9%
26 | COc1ccc(NC(=O)c2sccc2OS(=O)(=O)N(C)C)cc1 | 14.4%
27 | CC(C)CN1CCNC(=O)C1CC(=O)NCCc1ccc(C(F)(F)F)cc1 (stereo not shown) | 6.25%
28 | Cc1ccc(C(=O)OCc2cc3ccccc3[nH]c2=O)cc1 | 12.2%
29 | Cc1ccc(N2CN(Cc3cccnc3)CNC2=S)cc1 | 8.6%
30 | CCOc1ccc(C(=O)NCCc2ccc3c(c2)OCCO3)cc1 | 6.92%
31 | N#Cc1cnn(-c2ccccc2)c1NC(=O)CN1CCN(c2ccccc2)CC1 | 11.2%
32 | COCCn1c(=N)c(C(=O)NCc2ccco2)cc2c(=O)n3ccccc3nc21 | -88%
33 | S=C1NCCc2ccccc2C1c1ccccc1 (stereo not shown) | 6.27%
34 | CCSc1nnc2c(n1)OC(c1ccc(C(=O)O)cc1)N(C(C)=O)c1ccccc1-2 (stereo not shown) | 7.28%
35 | COC(=O)CC1C(=O)NCCN1C(=O)CSc1nc2ccccc2s1 (stereo not shown) | 8.32%
36 | COCCN(CCOC)C(=O)CN1C(=O)NC2(CCCc3sccc32)C1=O (stereo not shown) | 10.5%
37 | COc1ccccc1CNC(=O)CN(C)S(=O)(=O)c1cccc2cccnc12 | 6.77%
38 | COc1ccc(N2CCN(C(=O)COC(=O)/C=C/c3ccc(OC(F)F)cc3)CC2)cc1 | 3.79%
39 | N#CCc1nn(-c2ccccc2)c2ncnc(N)c12 | 6.31%
40 | Cc1ccc(-c2csc3nnc(SCC(=O)N4CCN(Cc5ccccc5)CC4)n23)cc1 | -18.2%
41 | CN(C)CCCN(C(=O)c1ccc(S(=O)(=O)N(C)C2CCCCC2)cc1)c1nc2ccc(F)cc2s1.Cl | -5.67%
42 | O=C(CN1CCN(c2ccc(Cl)cc2)CC1)N1CCCC1 | 3.25%
43 | O=C(CC1SC(=Nc2ccccc2)N(CCc2c[nH]c3ccccc23)C1=O)Nc1ccccc1F (stereo not shown) | 11.2%
44 | CCOc1ccccc1N1CCN(CC(O)COCc2cccs2)CC1 (stereo not shown) | -1.54%

Row | SMILES | hERG current change (%, negative = inhibition) at 1uM
45 | CC(=O)c1c(C)[nH]c(C(=O)NCCN2CCC(C)CC2)c1C | 5.87%
46 | O=C(c1ccc([N+](=O)[O-])cc1)N1CCN(Cc2ccccc2)CC1 | -28.7%
47 | CCOc1ccc(-c2nnc3ccc(SCC(=O)N4CCCCC4)nn23)cc1 | 5.46%
48 | CCOC(=O)c1ccc(NC(=O)CSc2nnc(NC(=O)c3ccc(S(=O)(=O)N4CCOCC4)cc3)s2)cc1 | 10.5%
49 | Cc1ccc(OCCCC(=O)Nc2ccc(N3CCOCC3)cc2)cc1 | 15.9%
50 | Cc1cc(C)c(C#N)c(Sc2nnnn2-c2ccccc2)n1 | 3.98%
51 | O=C(C1CCN(S(=O)(=O)c2cnc[nH]2)CC1)N1CCc2ccccc2C1 | 16.9%
52 | Cc1cc(NC(=O)CCC(=O)N(Cc2ccco2)C2(C(=O)NC3CCCCC3)CCN(C)CC2)no1 | 5.24%
53 | COCCn1c(SCC(=O)NC2CC2)nnc1-c1ccco1 | -8.04%
54 | COc1ccc(/C=N/NC(=O)C2C(=O)NCC2c2ccccc2)c(OC)c1 (stereo not shown) | 16.6%
55 | OC1(c2cccc(C(F)(F)F)c2)CCN(Cc2nc(-c3cnccn3)no2)CC1 | 8.98%
56 | O=C(NCc1ccccc1Cl)C1CCC(=O)N(CC2CCCCC2)C1 (stereo not shown) | 11.1%
57 | COc1ccc(C2=NN(c3nc(C)cc(C)n3)C(=O)C2)cc1 | 4.48%
58 | CCS(=O)(=O)c1ccc(-c2cccc(NC(=O)c3ccc(Br)o3)c2)nn1 | -5.57%
59 | Cc1ccc2nc3ccc(N4CCN(C)CC4)nn3c(=O)c2c1 | -13.1%
60 | Cc1cc(C)nc(NC(=NCCc2c[nH]c3ccccc23)NC(=O)Nc2ccccc2)n1 | 9.46%
61 | CCn1ccnc1[C@@H]1C[C@H]2CN(Cc3cccc(Cl)c3)C(=O)[C@]23CCCN13 | -5.37%
62 | CCOC(=O)C1=C(C)Nc2nnnn2C1c1ccc(OC)c(Br)c1 (stereo not shown) | 6.07%
63 | CCOc1ccc(N2C(=O)/C(=C/c3ccc(C)o3)C(=O)NC2=S)cc1 | 15.3%
64 | Fc1ccc(-n2nnc(-c3ccnc4ccccc34)n2)cc1 | 4.08%
65 | CC(=O)Nc1ccc(-c2nnc(SCc3ccccc3C#N)n2C)cc1 | -5.5%
66 | Cc1cc(C)nc(NC(=O)CCN2C(=O)c3ccccc3S2(=O)=O)n1 | 5.72%

Row | SMILES | hERG current change (%, negative = inhibition) at 1uM
67 | Brc1ccc(-c2nc(-c3ccncc3)no2)cc1 | 13.9%
68 | COc1cc(OC)cc(C(=O)OCCCOC(=O)c2cc(OC)cc(OC)c2)c1 | 12.7%
69 | CN1CCN(/N=C/c2c[nH]c3ccccc23)CC1 | 13.3%
70 | NC(=O)N/N=C/CCc1ccccc1 | 9.92%
71 | CC(C)C(NC(=O)c1ccco1)C(=O)OCC(=O)c1ccccc1 (stereo not shown) | 13.9%
72 | Cc1cc(C)nc(NS(=O)(=O)c2ccc(NC(=S)NC(=O)C3CCCC3)cc2)n1 | 4.48%
73 | CCN(C(=O)CSc1nc2cc(Cl)ccc2c(=O)n1CC(C)C)C1CCS(=O)(=O)C1 (stereo not shown) | 10.7%
74 | CCOc1ccc2nc(SCC(=O)NCc3ccccc3OC)[nH]c2c1 | 4.31%
75 | Nc1cc(C(=O)OCC(=O)c2ccc(CC(=O)N3CCOCC3)s2)ccc1Cl | 14.6%
76 | Cc1cc(C)n(-c2nc3c(c(=O)[nH]c(=O)n3C)n2Cc2ccccc2)n1 | 10.1%
77 | CCOC(=O)N1CCN(C(C)C(=O)c2c[nH]c3ccccc23)CC1 (stereo not shown) | -0.111%
78 | CCc1ccc2[nH]c(=O)c(CN(CCN3CCCC3)C(=O)NC3CCCCC3)cc2c1 | -8.52%
79 | O=C(c1ccccc1)[C@@H]1[C@@H]2C(=O)N(c3ccc(F)cc3)C(=O)[C@@H]2C2CCCN21 (stereo partly shown) | 9.06%
80 | CCOC(=O)C1CCCN(C(=S)Nc2ccc(F)cc2)C1 (stereo not shown) | 14.7%
81 | COc1cccc(C(=O)/C=C/Nc2ccc(S(=O)(=O)Nc3cc(OC)nc(OC)n3)cc2)c1 | 21%
82 | Cc1ccc(CCC(=O)Nc2cc(Cl)ccc2Cl)o1 | 7.21%
83 | CCOc1ccccc1NC(=O)COC(=O)CN(C)S(=O)(=O)c1ccc(C)cc1 | 2.44%
84 | Cc1ccc(S(=O)(=O)CCC(=O)OCC(=O)NC(C)c2ccc(F)cc2)cc1 (stereo not shown) | 8.62%
85 | O=C(Nc1ccccc1N1CCCC1)c1cc(Cl)ccc1Cl | 8.76%
86 | CC(C)=NOc1nc(NC(=O)NS(=O)(=O)c2ccccc2Cl)nc(N(C)C)n1 | 15.4%
87 | O=C(NN1CC(=O)N(c2cc(Cl)cc(Cl)c2)CC1=O)c1sccc1Cl | 11.9%
88 | CCN(C(=O)CN1C(=O)NC2(CCCc3ccccc32)C1=O)c1ccc(F)cc1 (stereo not shown) | 10.6%
